Results: publication PMC4918322
No constants are given. Whether binding was seen depends on the method and setting. Binding seen in cells or lysates may run through a third protein. Some binding calls cover weakened binding; strength is not graded here. For some assays here: Where a sequence is shown, tags or fusion partners need not be part of it.

Assays:
[1] = biological target: T1, endogenous RSF1 (human (endogenous; cell line not stated, all lines of the paper are human)) (UniProt Q96T23); assay: co-IP; endogenous proteins, mitotic cells; lysis in E1A buffer (50 mM Tris-HCl pH 7.4, 150 mM NaCl, 0.1% NP-40), antibody 12 h at 4 °C, protein A-Sepharose
T1 sequence: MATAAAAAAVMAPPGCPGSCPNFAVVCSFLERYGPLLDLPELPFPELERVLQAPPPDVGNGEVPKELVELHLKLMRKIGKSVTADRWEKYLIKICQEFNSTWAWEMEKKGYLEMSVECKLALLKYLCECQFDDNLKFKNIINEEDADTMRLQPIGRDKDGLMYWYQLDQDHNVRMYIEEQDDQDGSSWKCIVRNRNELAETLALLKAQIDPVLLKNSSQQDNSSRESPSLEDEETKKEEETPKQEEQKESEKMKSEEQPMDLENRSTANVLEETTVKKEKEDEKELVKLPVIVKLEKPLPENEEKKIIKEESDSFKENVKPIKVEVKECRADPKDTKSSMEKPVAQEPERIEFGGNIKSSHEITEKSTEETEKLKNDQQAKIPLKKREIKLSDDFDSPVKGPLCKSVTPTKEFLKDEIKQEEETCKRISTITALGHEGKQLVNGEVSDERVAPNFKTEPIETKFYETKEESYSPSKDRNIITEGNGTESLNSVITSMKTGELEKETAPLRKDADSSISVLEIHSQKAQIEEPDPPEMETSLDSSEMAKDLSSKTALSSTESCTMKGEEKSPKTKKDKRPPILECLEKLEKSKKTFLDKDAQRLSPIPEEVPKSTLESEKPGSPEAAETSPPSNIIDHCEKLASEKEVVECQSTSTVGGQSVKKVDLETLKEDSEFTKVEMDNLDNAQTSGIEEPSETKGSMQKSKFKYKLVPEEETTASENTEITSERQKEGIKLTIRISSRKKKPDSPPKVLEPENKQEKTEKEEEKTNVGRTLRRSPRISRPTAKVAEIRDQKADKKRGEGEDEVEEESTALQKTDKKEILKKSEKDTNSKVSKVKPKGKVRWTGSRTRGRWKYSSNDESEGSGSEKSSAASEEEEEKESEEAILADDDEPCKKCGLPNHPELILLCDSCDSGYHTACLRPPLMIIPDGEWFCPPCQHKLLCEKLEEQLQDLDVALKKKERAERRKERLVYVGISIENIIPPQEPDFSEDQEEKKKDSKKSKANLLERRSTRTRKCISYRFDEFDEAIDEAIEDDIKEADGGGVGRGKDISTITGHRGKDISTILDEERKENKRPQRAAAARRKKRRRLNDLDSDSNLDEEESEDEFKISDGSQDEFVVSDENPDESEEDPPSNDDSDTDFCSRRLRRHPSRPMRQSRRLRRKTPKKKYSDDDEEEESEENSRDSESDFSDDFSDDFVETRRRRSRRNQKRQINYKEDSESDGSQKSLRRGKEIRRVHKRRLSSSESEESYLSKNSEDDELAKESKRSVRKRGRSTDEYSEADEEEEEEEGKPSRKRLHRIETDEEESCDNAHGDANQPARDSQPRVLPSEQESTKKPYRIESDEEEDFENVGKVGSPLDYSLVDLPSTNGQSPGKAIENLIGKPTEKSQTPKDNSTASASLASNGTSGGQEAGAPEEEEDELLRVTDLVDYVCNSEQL

[2] = biological target: T2, V5-tagged RSF1-C1 S1375A (human) (UniProt Q96T23); assay: co-IP; RSF1 KO HeLa cells transfected with RSF1-C1-V5 constructs, paclitaxel 16 h; mitotic lysates immunoprecipitated with anti-V5 antibody, immunoblotting
T2 sequence: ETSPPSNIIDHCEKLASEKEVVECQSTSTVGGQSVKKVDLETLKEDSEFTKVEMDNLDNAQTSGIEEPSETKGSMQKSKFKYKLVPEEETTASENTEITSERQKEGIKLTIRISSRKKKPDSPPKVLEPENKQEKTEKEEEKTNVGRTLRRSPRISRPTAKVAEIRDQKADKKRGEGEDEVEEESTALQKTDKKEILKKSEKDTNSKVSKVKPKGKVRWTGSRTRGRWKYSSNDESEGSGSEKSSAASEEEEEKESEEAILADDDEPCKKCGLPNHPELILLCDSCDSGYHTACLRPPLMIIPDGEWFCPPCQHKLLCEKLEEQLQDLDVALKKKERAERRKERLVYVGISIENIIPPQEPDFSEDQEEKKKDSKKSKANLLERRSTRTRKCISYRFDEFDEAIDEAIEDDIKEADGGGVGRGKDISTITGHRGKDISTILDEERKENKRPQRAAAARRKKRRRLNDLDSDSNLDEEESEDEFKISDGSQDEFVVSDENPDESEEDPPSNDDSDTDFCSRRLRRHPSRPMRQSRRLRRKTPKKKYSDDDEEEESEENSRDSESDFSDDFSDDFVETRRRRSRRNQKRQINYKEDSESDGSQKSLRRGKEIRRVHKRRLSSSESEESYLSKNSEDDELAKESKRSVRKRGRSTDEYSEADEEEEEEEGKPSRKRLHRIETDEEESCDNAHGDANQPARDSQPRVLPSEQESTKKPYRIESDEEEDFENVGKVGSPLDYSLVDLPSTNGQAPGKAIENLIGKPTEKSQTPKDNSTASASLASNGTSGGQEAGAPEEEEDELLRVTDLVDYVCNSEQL

For “endogenous PLK1 (from UniProt P53350 1-603)”, which binding [1] is on record?
The binding was “binds”.

What about the binding [2] of the same substance?
Its binding is “no binding”.
